# In all, about 39,000 compounds went through this assay and about 220 (0.56%) showed activity. The list shows a part of the results.
# Tested on: Escherichia coli K-12 BW25113
# Assay: relative growth (OD600 normalised to plate interquartile mean) (fraction); higher = less growth inhibition, active = 0.2 or less
# Conditions: 50 µM; LB; incubation time: overnight (16-24 h)
# 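Further: static incubation at 37 °C against the wild-type strain, values averaged over two biological replicates.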
row,Compound,relative growth
1,C[C@@H]1CCCCO[C@H](CN(C)Cc2ccc(C(F)(F)F)cc2)[C@H](C)CN([C@H](C)CO)C(=O)c2cc(NS(=O)(=O)c3ccccc3)ccc2O1,inactive: 1.03
2,Cc1noc(C)c1NC(=O)Nc1ccc2c(c1)C(=O)N([C@H](C)CO)C[C@H](C)[C@@H](CN(C)Cc1ccncc1)OCCCC[C@@H](C)O2,inactive: 0.989
3,CCO[C@@H]1OC(C(=O)N2CCN(Cc3ccccc3)CC2)=C[C@H](c2csc3ccccc23)[C@H]1CCCOC(=O)NCCCCCC(=O)NO,inactive: 0.97
4,Cc1noc(C)c1NC(=O)Nc1ccc2c(c1)C(=O)N([C@@H](C)CO)C[C@@H](C)[C@@H](CN(C)CC1CCCCC1)OCCCC[C@@H](C)O2,inactive: 1.01
5,COc1ccc(S(=O)(=O)N(C)C[C@@H]2OCCCC[C@@H](C)Oc3ccc(NC(=O)CCC(F)(F)F)cc3C(=O)N([C@H](C)CO)C[C@@H]2C)cc1,inactive: 1.01
6,C[C@@H]1CN([C@@H](C)CO)C(=O)Cc2cc(NC(=O)C3CCCCC3)ccc2O[C@@H]1CN(C)C(=O)Nc1ccc(C(F)(F)F)cc1,inactive: 0.971
7,CCOC(=O)C(CCc1ccccc1)NC(C)C(=O)N1C(C(=O)O)CC2CCCC21 (stereo unspecified),inactive: 1.03
8,Cc1ccc(S(=O)(=O)N2C[C@H](O)COC[C@@H]3O[C@@H](CC(=O)N[C@@H]4CCN(Cc5ccccc5)C4)CC[C@H]32)cc1,inactive: 0.964
9,Cc1ccc(S(=O)(=O)N(C)C[C@H]2Oc3c(NS(=O)(=O)c4cn(C)cn4)cccc3C(=O)N([C@H](C)CO)C[C@@H]2C)cc1,inactive: 1
10,C[C@@H]1CN([C@@H](C)CO)C(=O)c2cc(NC(=O)Nc3ccc(F)cc3)ccc2O[C@@H](C)CCCCO[C@H]1CN(C)CC1CC1,inactive: 0.975
11,C[C@H]1CN([C@@H](C)CO)C(=O)c2cccc(NC(=O)NC3CCCCC3)c2O[C@@H]1CN(C)S(C)(=O)=O,inactive: 0.988
12,CC(C)NC(=O)Nc1ccc2c(c1)C(=O)N([C@@H](C)CO)C[C@@H](C)[C@H](CN(C)C(=O)NC1CCCCC1)O2,inactive: 1.01
13,Cc1cc(OCc2nnc(SC3CCCC3)n2-c2cccnc2)ccc1-c1ccc(S(C)(=O)=O)cc1,inactive: 1.04
14,Cc1ccc(S(=O)(=O)N(C)C[C@H]2Oc3ncc(-c4ccncc4)cc3C(=O)N([C@H](C)CO)C[C@@H]2C)cc1,inactive: 0.995
15,C[C@H]1CN([C@@H](C)CO)C(=O)c2cc(C#CCN(C)C)cnc2O[C@H]1CN(C)C(=O)CN1CCOCC1,inactive: 1.01
16,C[C@@H]1CCCCO[C@@H](CN(C)C(=O)Nc2cccc3ccccc23)[C@H](C)CN([C@H](C)CO)C(=O)c2cc(NC(=O)CCC(F)(F)F)ccc2O1,inactive: 1.02
17,COc1cccc(NC(=O)N(C)C[C@@H]2Oc3ncc(C#Cc4cccnc4)cc3C(=O)N([C@@H](C)CO)C[C@@H]2C)c1,inactive: 0.976
18,Cc1ccnc(NC(=O)Cn2cnc3c2c(=O)n(C)c(=O)n3C)n1,inactive: 0.971
19,CN(C)CC(=O)N[C@@H]1C=C[C@H](CC(=O)O)O[C@H]1CO,inactive: 0.997
20,Cc1noc(C)c1NC(=O)N(C)C[C@H]1OCCCC[C@@H](C)Oc2ccc(NC(=O)Cc3ccccc3)cc2C(=O)N([C@H](C)CO)C[C@H]1C,inactive: 0.991
21,CC(C)NC(=O)Nc1cccc2c1O[C@@H](CN(C)Cc1ccc(Oc3ccccc3)cc1)[C@@H](C)CN([C@@H](C)CO)C2=O,inactive: 0.994

row,Compound,relative growth
1,C[C@H](CO)N1C[C@H](C)[C@@H](CN(C)Cc2cccc(C(=O)O)c2)OCc2ccccc2-c2c(n(C)c3ccccc23)C1=O,inactive: 0.997
2,CCOC(=O)CCCCCC(=O)Nc1ccc2c(c1)C(=O)N([C@H](C)CO)C[C@@H](C)[C@@H](CN(C)S(=O)(=O)c1ccc(Cl)cc1)OCCCC[C@H](C)O2,inactive: 1.03
3,CO[C@@H](C)n1cc(Br)c(=O)[nH]c1=O,inactive: 1.02
4,CNc1ncnc2c1ncn2[C@@H]1O[C@H](CO)[C@@H](O)[C@H]1O,inactive: 0.993
5,COc1ccccc1N1CCN(c2ncc(C(=O)N3CCN(c4cccc(Cl)c4)CC3)c3ccccc23)CC1,inactive: 0.994
6,O=C(C[C@@H]1C=C[C@@H](NC(=O)C2CCC2)[C@H](CO)O1)NCCCN1CCOCC1,inactive: 0.945
7,C[C@H](CO)N1C[C@H](C)[C@@H](CN(C)Cc2ccc(-c3ccccc3)cc2)Oc2ncc(-c3cccnc3)cc2C1=O,inactive: 1.02
8,O=S1(=O)CCOCC1,inactive: 1
9,CC(C)(C(=O)O)c1ccc([C@@H](O)CCCN2CCC(C(O)(c3ccccc3)c3ccccc3)CC2)cc1,inactive: 0.996
10,COc1ccc(NC(=O)N(C)C[C@@H]2OCCCC[C@@H](C)Oc3ccc(NS(=O)(=O)c4ccc(C)cc4)cc3C(=O)N([C@@H](C)CO)C[C@H]2C)cc1,inactive: 1.03
11,C[C@H]1CN([C@@H](C)CO)C(=O)c2cc(NC(=O)C3CCCCC3)ccc2O[C@@H]1CN(C)C(=O)Nc1cccc2ccccc12,inactive: 0.976
12,C[C@H](CO)N1C[C@H](C)[C@H](CN(C)C(=O)Nc2cccc3ccccc23)Oc2c(NC(=O)Nc3ccc4c(c3)OCO4)cccc2C1=O,inactive: 0.99
13,C[C@@H]1CCCCO[C@H](CN(C)C(=O)c2ccccc2)[C@@H](C)CN([C@H](C)CO)C(=O)c2cc(NC(=O)Nc3cccc4ccccc34)ccc2O1,inactive: 1.02
14,COc1ccccc1-c1cnc2c(c1)C(=O)N([C@@H](C)CO)C[C@@H](C)[C@@H](CN(C)C(=O)c1cccnc1)O2,inactive: 1
15,COC(=O)[C@@H]1[C@@H](CO)[C@@H]2Cn3c(cccc3=O)[C@@H]2N1C(=O)C1CC1,inactive: 0.986
16,Cn1cnc(S(=O)(=O)N2C[C@@H](O)COC[C@@H]3O[C@H](CC(=O)NC4CCC4)CC[C@H]32)c1,inactive: 0.964
17,C[C@H](CO)N1C[C@H](C)[C@H](CN(C)S(C)(=O)=O)Oc2ccc(NS(=O)(=O)c3cn(C)cn3)cc2CC1=O,inactive: 0.961
18,Cc1cc(C(=O)Nc2cccc3c2O[C@H](CN(C)S(=O)(=O)c2ccc(Cl)cc2)[C@@H](C)CN([C@H](C)CO)C3=O)n(C)n1,inactive: 1.01
19,C[C@H](NC(=O)C[C@H]1C[C@H]2c3cc(NC(=O)Nc4ccc(C(F)(F)F)cc4)ccc3O[C@H]2[C@H](CO)O1)c1ccccc1,inactive: 0.948
20,C[C@@H]1CCCCO[C@@H](CN(C)CC2CC2)[C@@H](C)CN([C@H](C)CO)C(=O)c2cc(NS(C)(=O)=O)ccc2O1,inactive: 0.997
21,Cc1nc2n(c(=O)c1C)[C@H](CC(=O)O)CS2,inactive: 0.975

row,Compound,relative growth
1,C[C@H](CO)N1C[C@H](C)[C@H](CN(C)C(=O)c2ccc3c(c2)OCO3)Oc2ncc(C3=CCCC3)cc2C1=O,inactive: 0.988
2,OCCN1CCN(CCCN2c3ccccc3Sc3ccc(Cl)cc32)CC1,inactive: 0.913
3,NC(=O)CCN1C(=O)c2ccccc2C1=O,inactive: 1.01
4,CO[C@H]1O[C@H](COS(=O)(=O)O)[C@@H](O[C@@H]2O[C@@H](C(=O)O)[C@@H](OC)[C@H](O)[C@H]2OS(=O)(=O)O)[C@H](O)[C@H]1NS(=O)(=O)O,inactive: 0.982
5,C[C@H]1CCCCO[C@@H](CN(C)C(=O)NC2CCCCC2)[C@@H](C)CN([C@@H](C)CO)C(=O)c2cc(NC(=O)NC3CCCCC3)ccc2O1,inactive: 1.01
6,CCS(=O)(=O)N1C[C@]2(CCN(CC2)Cc2cccc(c2)OC)c2c(n(c3cc(ccc23)OC)C)[C@@H]1CO,inactive: 1.01
7,Cl.NCCCC(=O)O [gamma-AMINOBUTYRIC ACID HYDROCHLORIDE],inactive: 0.905
8,COCCN1C(=O)C[C@@H]2[C@@H]1CCN2S(=O)(=O)c1cn(C)cn1,inactive: 1.03
9,COCC#Cc1ccc2c(c1)O[C@@H](CN(C)C(=O)C1CCCCC1)[C@@H](C)CN([C@@H](C)CO)S2(=O)=O,inactive: 1.01
10,C[C@@H]1CCCCO[C@H](CN(C)Cc2ccncc2)[C@@H](C)CN([C@@H](C)CO)C(=O)c2cc(NS(C)(=O)=O)ccc2O1,inactive: 1
11,CO[C@@H](CN(C)S(=O)(=O)c1ccc(F)cc1)[C@@H](C)CN([C@H](C)CO)S(=O)(=O)c1cccc(Cl)c1,inactive: 1.03
12,C[C@H]1CN([C@@H](C)CO)C(=O)Cc2cc(NS(=O)(=O)c3ccc(F)cc3)ccc2O[C@@H]1CN(C)CC1CC1,inactive: 1.02
13,C[C@H]1CN([C@@H](C)CO)C(=O)c2cc(NC(=O)Nc3ccc(F)cc3)ccc2O[C@@H]1CN(C)Cc1ccc(Cl)c(Cl)c1,inactive: 1.04
14,C[C@@H]1CN([C@H](C)CO)C(=O)c2cc(NC(=O)Nc3ccc(C(F)(F)F)cc3)ccc2O[C@@H]1CN(C)S(C)(=O)=O,inactive: 0.986
15,COc1ccccc1C#Cc1cnc2c(c1)C(=O)N([C@@H](C)CO)C[C@@H](C)[C@@H](CN(C)C(=O)CC1CC1)O2,inactive: 0.988
16,Cc1noc(C)c1NC(=O)N(C)C[C@H]1Oc2ccc(NS(=O)(=O)c3cn(C)cn3)cc2C(=O)N([C@@H](C)CO)C[C@H]1C,inactive: 1.01
17,C[C@@H]1CN([C@H](C)CO)C(=O)c2cc(NC(=O)CCCN(C)C)ccc2O[C@@H]1CN(C)C(=O)Nc1ccc(F)cc1,inactive: 1.01
18,Nc1ncn(C(=O)c2ccccc2)n1,inactive: 0.997
19,C[C@@H]1CN([C@H](C)CO)C(=O)Cc2cc(NS(=O)(=O)c3ccc(Cl)cc3)ccc2O[C@H]1CN(C)Cc1ccc(C(=O)Nc2ccccc2N)cc1,inactive: 1.01
